From the RNAGym collection of RNA variant scans (doi:10.7554/elife.90254)
Read counts are not given, so values of variants with three or more changes are uncertain.

B1: LINE1-mini (parent)
chain: GGCAGAGCUCAACACAGCGUGGCAAAGUGGCUGUGGCUAGACUGCC

Variants of: B1
Assay: self-cleavage, relative activity (ratio to wild type); higher = more cleavage; in vitro, sequencing; the parent is a self-cleaving ribozyme

**Q.** With GGCGGGGCUCAAAACAGCGUGGCAAAGUGGCUGUGGCUAGACUGCU [A4G A6G C13A C46U] as the variant, how does the self-cleavage read?
**A.** 0.02

**Q.** Which self-cleavage does the source give for GGCGGAGCUCAUUGCAGCGUGGCAAAGUGGCUGUGGCUAGACUGCC [A4G A12U C13U A14G] here?
**A.** 0.19

**Q.** Which self-cleavage does the source give for GGCGGCGCUCAACACAGCGUGGCAAACUGGCUGUGGCUAGACUGCC [A4G A6C G27C] here?
**A.** 0.03

**Q.** Which self-cleavage does the source give for GGCCGAGCUCAACACAGCGCGGCAAAGUGGAUGUGCCUAGACUGCC [A4C U20C C31A G36C] here?
**A.** 0.04

**Q.** Which self-cleavage does the source give for GGCGGAGCUCGACACAGCGUGGCAAAUUGGCUGUGGCGAGACUGCG [A4G A11G G27U U38G C46G] here?
**A.** 0

**Q.** For GGCCGAGCUCAACACAUUGUGGCAAAGUGGCUGUGGCUAGACUGCC [A4C G17U C18U], which self-cleavage is on record?
**A.** 0.05

**Q.** For GGCGGAGCUCUACACAUCGUGGCAAAGUUGCUGUGGCUAGACUGCC [A4G A11U G17U G29U], which self-cleavage is on record?
**A.** 0.02

**Q.** For GGCCGACCUCAACACAGCGUGGCAAAGUGGCUUUGGCUAGACUGCC [A4C G7C G33U], which self-cleavage is on record?
**A.** 0.14

**Q.** Which self-cleavage does the source give for GGCGGAGCUCAACACCGCGUGCCAAAGUCGCUGUGGCUAGACUGCC [A4G A16C G22C G29C] here?
**A.** 0.16

**Q.** Which self-cleavage does the source give for GGCGGGGCUCAACCCAGCGUGGAAAAGUGGCUGUGGCUCGACUGCC [A4G A6G A14C C23A A39C] here?
**A.** 0.03

**Q.** Which self-cleavage does the source give for GGCCGAGCGCAACACAGGGUGGCAAAGUGGCUGUGGCUAGACUGCC [A4C U9G C18G] here?
**A.** 1.69

**Q.** With GGCCGAUAUAAACACAGCGUGGCAAAGUGGCUGUGGCUAUACUGCC [A4C G7U C8A C10A G40U] as the variant, how does the self-cleavage read?
**A.** 0.05

**Q.** For GGCGGGGCACAACACAGCGUGGCAAAGUGGCUGUGGCUAAACUGCC [A4G A6G U9A G40A], which self-cleavage is on record?
**A.** 0.11

**Q.** Which self-cleavage does the source give for GGCCGAGCUCAACACAGCGUCUCAAAGUGGCUGUGGCUAGCCUGCC [A4C G21C G22U A41C] here?
**A.** 0.26

**Q.** For GGCCGAGCUCAACACAGCGGGGCAAAGUGGCUGAGGCUAGACUGCC [A4C U20G U34A], which self-cleavage is on record?
**A.** 0.03

**Q.** For GGCCGAGCUCAACACAGCGUGCCAAAGCGGCCGUGGCUAGACUGCC [A4C G22C U28C U32C], which self-cleavage is on record?
**A.** 0

**Q.** For GGCCGAGCUCAACACAGCGUGCCAAAGUGGUUGUGGCUAGACUGCC [A4C G22C C31U], which self-cleavage is on record?
**A.** 0.04

**Q.** Which self-cleavage does the source give for GGCGGCGCUCAACCCAGCGUGGCAAAGUGGCUGUGGCUAGACUGCC [A4G A6C A14C] here?
**A.** 0.15

**Q.** Which self-cleavage does the source give for GGCGGAGCUCACCACAGCGUGGGAAAGUGGCUGUGGCUAAACUGCC [A4G A12C C23G G40A] here?
**A.** 0.23

**Q.** For GGCCGAGCUCAACACAGCGUGGCAAAGUGCCUAUGGCUAGACUGCC [A4C G30C G33A], which self-cleavage is on record?
**A.** 0.02

**Q.** Which self-cleavage does the source give for GGCGGCGCUCAACGCAGCGUGGAAACGUAGCUGUGGCUAGACUGCC [A4G A6C A14G C23A A26C G29A] here?
**A.** 0.34

**Q.** Which self-cleavage does the source give for GGCCGAGCUCAACACAGCGUGGCAAAGUGGCUCUGGCUACACUGAC [A4C G33C G40C C45A] here?
**A.** 0.02

**Q.** For GGCGGAGCUCGACACAGCGUGGCAAAGUGGCUGUUGCUAGACUGCC [A4G A11G G35U], which self-cleavage is on record?
**A.** 0.03

**Q.** With GGCCGAGCUCAACACAGCGUGGCAAAGUGUAUGUGGCUAGACUGCC [A4C G30U C31A] as the variant, how does the self-cleavage read?
**A.** 0.04

**Q.** With GGCGGAGCUCACCAUAGCGUGGCUAAGAGGCUGUGGCUAGACUGCC [A4G A12C C15U A24U U28A] as the variant, how does the self-cleavage read?
**A.** 0.05

**Q.** With GGCCGAGCGCAACACAGCGUGGCAAAGUGGUUGUGGCUAGAGUGCC [A4C U9G C31U C42G] as the variant, how does the self-cleavage read?
**A.** 0.03

**Q.** With GGCCGACCUCAACACAGCGUGGCAAAGUCGCUGUGGCUAGACUGCC [A4C G7C G29C] as the variant, how does the self-cleavage read?
**A.** 0.22

**Q.** With GGCGGAGCUCAACGCAGCAUGGCAAAGUGGCUGUCGCUAAACUGCG [A4G A14G G19A G35C G40A C46G] as the variant, how does the self-cleavage read?
**A.** 0.02

**Q.** With GGCGGAGCUCCAGACAGCGUGGCAAAGUGGCUGUGGCUGGACUGCC [A4G A11C C13G A39G] as the variant, how does the self-cleavage read?
**A.** 0.03

**Q.** Which self-cleavage does the source give for GGCCGAGCUCAACACAGCGUGGCAAAGUGGCCGUGGCUAGACUUCC [A4C U32C G44U] here?
**A.** 0.11

**Q.** Which self-cleavage does the source give for GGCGGAGCUCAACACAGCGUGGCAACGUGGCUGUGUCUAGACUUCC [A4G A26C G36U G44U] here?
**A.** 0.19

**Q.** With GGCCGAGCUCAACACAGCGUGUCAAAGUGGCGGUGGCUAGACUGCC [A4C G22U U32G] as the variant, how does the self-cleavage read?
**A.** 0.1

**Q.** For GGCGGAGCUCGACAGAGCGUGGCAAAGUGGCGGUGGCUAGACUGCC [A4G A11G C15G U32G], which self-cleavage is on record?
**A.** 0.03

**Q.** With GGCGGAGCUCUACACAGCGUGGCCAAGUGGCUGUGGCUAGACUGCC [A4G A11U A24C] as the variant, how does the self-cleavage read?
**A.** 0.05

**Q.** For GGCGGAGCUCAACCCAGCGUGGCAAAGUGGCGGUGGCUAGACUGCC [A4G A14C U32G], which self-cleavage is on record?
**A.** 0.15

**Q.** For GGCGGAGCUCAACACAGCGUGGCAAUGUGGCUGUGGCUAGACUUCC [A4G A26U G44U], which self-cleavage is on record?
**A.** 0.12

**Q.** With GGCGGAGAUCACCACAGCGUGGCAAGGUGGCUGUGGCUAGACCGCC [A4G C8A A12C A26G U43C] as the variant, how does the self-cleavage read?
**A.** 0.02

**Q.** Which self-cleavage does the source give for GGCCGAGCUCAACACAUCGUGGCAAAGUGGCUGUUGCUAGUCUGCC [A4C G17U G35U A41U] here?
**A.** 0.06

**Q.** With GGCCGAGCUCAACACAGCGUGGCAAAGUGACUGUGGCUAGAGUGCC [A4C G30A C42G] as the variant, how does the self-cleavage read?
**A.** 0.03

**Q.** Which self-cleavage does the source give for GGCGGAGCUCAACACGUCGUGGCAAAGUGGCUGUGGCUAGACUGCC [A4G A16G G17U] here?
**A.** 0.05

**Q.** With GGCGGAGCUCAUCACAGCGUGGCAAAGUGGCUGUGGCUAGGCUGCC [A4G A12U A41G] as the variant, how does the self-cleavage read?
**A.** 0.14

**Q.** For GGCGGAGCUCAUCACCGCGUGGCAAAGUGGCUGUGGCUCGACUGCC [A4G A12U A16C A39C], which self-cleavage is on record?
**A.** 0.01

**Q.** For GGCCGAGCUCAACACAGCGCGGCAAAGUGGCUGAGGCUAGACUGCC [A4C U20C U34A], which self-cleavage is on record?
**A.** 0.04

**Q.** With GGCCGAGCUCAACACAGCGUGGCAAAGUAGUUGUGGCUAGACUGCC [A4C G29A C31U] as the variant, how does the self-cleavage read?
**A.** 0.09

**Q.** With GGCGGGGCUCAACAAAGCUUGGCAAAGUGGCGGUGGCUAAACUGCC [A4G A6G C15A G19U U32G G40A] as the variant, how does the self-cleavage read?
**A.** 0.02

**Q.** For GGCGGAGCUCAACACAGCGUGGCAGAGUGGCUGUGGCUAGACUGAC [A4G A25G C45A], which self-cleavage is on record?
**A.** 0.12

**Q.** Which self-cleavage does the source give for GGCGGAGCUCUCCCCAGCGUGGGAAAGUGGCAGUGGCUAGACUGCC [A4G A11U A12C A14C C23G U32A] here?
**A.** 0

**Q.** Which self-cleavage does the source give for GGCCGAGCUCAACACAGCGUGGCAAAUUGUCUGUGGCUAGACUGCC [A4C G27U G30U] here?
**A.** 0.34

**Q.** For GGCGGGGCUCAACACAGCGUGGCAAAUUGGCUGUGUCUAGACUUCC [A4G A6G G27U G36U G44U], which self-cleavage is on record?
**A.** 0.11

**Q.** For GGCCGAGCUCAACACAGCGUGACAAAGUGGCUGUUGCUAGCCUGCC [A4C G22A G35U A41C], which self-cleavage is on record?
**A.** 0.05

**Q.** With GGCCGAGCUCAACACAUCGUGGCAAAGUGGCAGUGGCUAGACUGCC [A4C G17U U32A] as the variant, how does the self-cleavage read?
**A.** 0.22

**Q.** For GGCCGAGCUCAACACAGCGAGCCAAAGCGGCUGUGGCUAGAGCGCC [A4C U20A G22C U28C C42G U43C], which self-cleavage is on record?
**A.** 0.01

**Q.** With GGCCGAGCUCAACACAGCGUGACAAAGUGGCUGUGGCUAGUCUGCC [A4C G22A A41U] as the variant, how does the self-cleavage read?
**A.** 0.11

**Q.** For GGCCGAGCUCAACACAGCAUGGCUAAGUGGCUGUGGCCCGACUGCC [A4C G19A A24U U38C A39C], which self-cleavage is on record?
**A.** 0.07

**Q.** With GGCCGAGCUCAACACAGCGUCGCAAAGUGGCAGUGGCUAGACUGCC [A4C G21C U32A] as the variant, how does the self-cleavage read?
**A.** 0.35

**Q.** With GGCCGAGCUCAACACAGCGUGGCAAAGUCGUUGUGGCUAGACUGCC [A4C G29C C31U] as the variant, how does the self-cleavage read?
**A.** 0.01
